Assay results reported in the supplement of paper PMC6206098.
± gives the uncertainty stated by the source. The sequences are guide strands of siRNAs; only the seed at positions 2 to 7 varies.

Legend:
3LL = experiment: cell viability relative to siNT1 control; higher = less toxic; settings: concentration: 10 nM; 96 h; Mus musculus;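 also: Luminescence-based viability of cells reverse transfected in 384-well plates with lipid-complexed siRNAs built on a non-toxic 19mer backbone whose passenger strand carries 2′-O-methyl groups at positions 1 and 2, triplicates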
M565 = experiment: cell viability relative to lipid-only control; HeyA8 human ovarian and H460 human lung cancer; M565 mouse liver and 3LL mouse lung cancer; siNT1 is a non-toxic control siRNA; higher = less toxic; settings: concentration: 10 nM; 96 h; Mus musculus
H460 = experiment: as above; settings: concentration: 10 nM; 96 h; Homo sapiens
HeyA8 = experiment: as above; settings: concentration: 10 nM; 96 h; Homo sapiens
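For cell viability relative to lipid-only control in this document: reverse lipid transfection in 384-well plates, in triplicate, of duplexes on a non-toxic 19mer backbone with passenger strand 2′-O-methylated at positions 1 and 2, luminescence viability read-out.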

Sequence | cell viability (3LL) | cell viability (M565) | cell viability (H460) | cell viability (HeyA8)
UUUCCCAACAUGUAAACCAAA | 82.5 ± 5% | 72.9 ± 9.9% | 74.8 ± 10% | 95.5 ± 2.8%
UUUCCCCACAUGUAAACCAAA | 13 ± 3% | 14.1 ± 2.5% | 62.1 ± 8.6% | 52.4 ± 0.74%
UUUCCCGACAUGUAAACCAAA | 75 ± 3.1% | 69.1 ± 11% | 63.6 ± 3.7% | 81.2 ± 8.6%
UUUCCCUACAUGUAAACCAAA | 83.9 ± 13% | 77.6 ± 2.5% | 64.2 ± 6.4% | 75.6 ± 4.3%
UUUCCGAACAUGUAAACCAAA | 99.5 ± 5.1% | 83.3 ± 4.2% | 87.9 ± 6.3% | 104 ± 2.4%
UUUCCGCACAUGUAAACCAAA | 35.85 ± 0.29% | 41.5 ± 2.4% | 55.2 ± 2.7% | 69.5 ± 6%
UUUCCGGACAUGUAAACCAAA | 92.3 ± 5.9% | 32.9 ± 3.3% | 76.8 ± 14% | 97.7 ± 2%
UUUCCGUACAUGUAAACCAAA | 31.7 ± 2.8% | 42.4 ± 5% | 44 ± 3.6% | 71.8 ± 1.6%
UUUCCUAACAUGUAAACCAAA | 89.01 ± 0.74% | 93 ± 9.6% | 68.2 ± 4.2% | 101 ± 2.1%
UUUCCUCACAUGUAAACCAAA | 46.4 ± 5.2% | 34.5 ± 7.3% | 35.2 ± 1.8% | 56.1 ± 5.3%
UUUCCUGACAUGUAAACCAAA | 91.1 ± 5.3% | 76 ± 6.1% | 79.3 ± 8.8% | 92.6 ± 7%
UUUCCUUACAUGUAAACCAAA | 67.4 ± 5% | 89.9 ± 9.5% | 58.1 ± 11% | 66.2 ± 5.3%
UUUCGAAACAUGUAAACCAAA | 103 ± 7.4% | 78 ± 5.2% | 77.7 ± 12% | 101 ± 3.3%
UUUCGACACAUGUAAACCAAA | 90.3 ± 7.6% | 67.8 ± 5.4% | 70.3 ± 7.3% | 86.4 ± 5.8%
UUUCGAGACAUGUAAACCAAA | 94.9 ± 7.4% | 87.9 ± 17% | 79.3 ± 14% | 100 ± 2.7%
UUUCGAUACAUGUAAACCAAA | 107 ± 7.4% | 82.1 ± 11% | 80.6 ± 21% | 101 ± 4.7%
UUUCGCAACAUGUAAACCAAA | 94.2 ± 4.1% | 86 ± 9% | 83.6 ± 8.9% | 100 ± 4.2%
UUUCGCCACAUGUAAACCAAA | 89.2 ± 14% | 101 ± 14% | 56.9 ± 4.4% | 88.1 ± 1.4%
UUUCGCGACAUGUAAACCAAA | 102 ± 2.8% | 93.3 ± 14% | 72.6 ± 10% | 106 ± 2.8%
UUUCGCUACAUGUAAACCAAA | 93.9 ± 10% | 72.5 ± 8.6% | 80.5 ± 16% | 95.3 ± 1.5%

Sequence | cell viability (3LL) | cell viability (M565) | cell viability (H460) | cell viability (HeyA8)
UUUCGGAACAUGUAAACCAAA | 95.1 ± 5.8% | 65.3 ± 12% | 69.2 ± 3.3% | 98.6 ± 4.6%
UUUCGGCACAUGUAAACCAAA | 76.3 ± 9.2% | 40.7 ± 7.9% | 49.4 ± 2.8% | 64.4 ± 3.6%
UUUCGGGACAUGUAAACCAAA | 89.4 ± 4.7% | 61.8 ± 6% | 65.5 ± 6.2% | 91 ± 2.2%
UUUCGGUACAUGUAAACCAAA | 91.8 ± 7.4% | 48.9 ± 6% | 56.9 ± 3.5% | 82.1 ± 2%
UUUCGUAACAUGUAAACCAAA | 102 ± 7.1% | 94 ± 5.5% | 68.2 ± 11% | 99.1 ± 4%
UUUCGUCACAUGUAAACCAAA | 83 ± 8.2% | 54.6 ± 7.9% | 55.4 ± 3.7% | 74.8 ± 2.8%
UUUCGUGACAUGUAAACCAAA | 101 ± 4.7% | 84.4 ± 5.3% | 72.7 ± 5.4% | 101 ± 4.2%
UUUCGUUACAUGUAAACCAAA | 99.1 ± 10% | 81.4 ± 15% | 74.7 ± 11% | 93.1 ± 2.1%
UUUCUAAACAUGUAAACCAAA | 102 ± 8.2% | 93.2 ± 7.7% | 46.1 ± 6% | 98.4 ± 4.6%
UUUCUACACAUGUAAACCAAA | 50.5 ± 6% | 43.5 ± 9.3% | 51.1 ± 3.4% | 76.7 ± 1.4%
UUUCUAGACAUGUAAACCAAA | 86.3 ± 7.4% | 79.1 ± 7.1% | 43.6 ± 6.8% | 98.9 ± 3.6%
UUUCUAUACAUGUAAACCAAA | 85.2 ± 3.7% | 43.6 ± 5.5% | 70.1 ± 9.8% | 89 ± 5.7%
UUUCUCAACAUGUAAACCAAA | 103 ± 9.5% | 75.1 ± 13% | 43.1 ± 2.9% | 96.6 ± 1.9%
UUUCUCCACAUGUAAACCAAA | 30.2 ± 3.2% | 66.9 ± 7.6% | 28.6 ± 1.5% | 30.3 ± 3.9%
UUUCUCGACAUGUAAACCAAA | 99.3 ± 6.3% | 79.5 ± 5.4% | 37.2 ± 6.8% | 90.5 ± 7.2%
UUUCUCUACAUGUAAACCAAA | 76 ± 7.5% | 79.7 ± 16% | 29.9 ± 4.2% | 54.4 ± 5.1%
UUUCUGAACAUGUAAACCAAA | 104 ± 4.2% | 93.9 ± 11% | 51.3 ± 3% | 79 ± 2.6%
UUUCUGCACAUGUAAACCAAA | 5.86 ± 1.3% | 53.4 ± 4.5% | 41 ± 2.5% | 47.5 ± 2.1%
UUUCUGGACAUGUAAACCAAA | 21.8 ± 4.3% | 29.6 ± 11% | 46.2 ± 11% | 32.3 ± 6%
UUUCUGUACAUGUAAACCAAA | 22.2 ± 0.29% | 48.9 ± 3.6% | 55.6 ± 7% | 69.2 ± 2.7%

Sequence | cell viability (3LL) | cell viability (M565) | cell viability (H460) | cell viability (HeyA8)
UUUCUUAACAUGUAAACCAAA | 112 ± 4.4% | 102 ± 13% | 71.5 ± 9.4% | 97.4 ± 3.6%
UUUCUUCACAUGUAAACCAAA | 48.7 ± 1.3% | 120 ± 5.2% | 53.4 ± 4.6% | 40.9 ± 2.8%
UUUCUUGACAUGUAAACCAAA | 95.5 ± 7.2% | 101 ± 21% | 51.3 ± 7% | 98.4 ± 4.7%
UUUCUUUACAUGUAAACCAAA | 99.8 ± 1.1% | 114 ± 16% | 53.6 ± 3.3% | 97.2 ± 2.2%
UUUGAAAACAUGUAAACCAAA | 97.4 ± 4.1% | 81.2 ± 5.5% | 74.6 ± 6.3% | 104 ± 2.4%
UUUGAACACAUGUAAACCAAA | 95.5 ± 7% | 98.8 ± 17% | 96.7 ± 12% | 90.5 ± 3.5%
UUUGAAGACAUGUAAACCAAA | 97.6 ± 2.8% | 75.8 ± 5.9% | 78.2 ± 2.4% | 101 ± 7.1%
UUUGAAUACAUGUAAACCAAA | 79.2 ± 12% | 92.1 ± 6.8% | 74.8 ± 8% | 102 ± 9.4%
UUUGACAACAUGUAAACCAAA | 101 ± 3.1% | 89 ± 17% | 52.5 ± 2% | 102 ± 2%
UUUGACCACAUGUAAACCAAA | 47.2 ± 1.3% | 24.6 ± 2% | 42.4 ± 4.8% | 37.7 ± 2.6%
UUUGACGACAUGUAAACCAAA | 99.3 ± 3% | 72.2 ± 12% | 70.3 ± 3.4% | 99.9 ± 6%
UUUGACUACAUGUAAACCAAA | 79.9 ± 0.99% | 84.7 ± 11% | 49.4 ± 3.1% | 76.9 ± 1.2%
UUUGAGAACAUGUAAACCAAA | 105 ± 4.1% | 96.4 ± 7.5% | 78.5 ± 6.6% | 95.7 ± 3.4%
UUUGAGCACAUGUAAACCAAA | 12.5 ± 3.3% | 28 ± 4.5% | 66 ± 3.3% | 85.9 ± 5.9%
UUUGAGGACAUGUAAACCAAA | 88.5 ± 14% | 42.4 ± 2.6% | 68.4 ± 4.2% | 59.6 ± 3.7%
UUUGAGUACAUGUAAACCAAA | 54.7 ± 8.9% | 57.2 ± 4.2% | 66.4 ± 3.2% | 85.6 ± 2.5%
UUUGAUAACAUGUAAACCAAA | 103 ± 6.8% | 90.6 ± 6.6% | 65.9 ± 7.8% | 104 ± 6.1%
UUUGAUCACAUGUAAACCAAA | 79.8 ± 17% | 64.7 ± 9.4% | 72.5 ± 4.1% | 74.8 ± 8.7%
UUUGAUGACAUGUAAACCAAA | 99.5 ± 6.7% | 91.2 ± 17% | 81.5 ± 7.3% | 91.3 ± 5.8%
UUUGAUUACAUGUAAACCAAA | 91.3 ± 2.4% | 93.3 ± 6.7% | 92.8 ± 13% | 86.8 ± 2.4%
